The other results are listed elsewhere or left out. The main result of the screen is listed elsewhere. These columns were measured beside it and carry no call. For part of these data: Compounds called inactive in the main read-out are mostly missing here. For part of these data: Potencies come from curve fits of mixed quality, noted in brackets.

Our source for the AC50, z-score and max response values is PubChem BioAssay (NCATS).

Experiment [1] is described as follows: qHTS drug screen for cell cycle checkpoint inhibitors in PARPi-resistant BRCA-mutant ovarian cancer cell lines. (AID 1963452). The note with it: PEO1/OlaR viability, CellTiter-Glo luminescence, 96 h. Put shortly:
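PEO1, PEO4 and PEO1/OlaR ovarian cancer cells, 600 per well, exposed 96 h at 37C to a dilution series. Viability read by CellTiter-Glo luminescence, normalized to DMSO and empty wells; activity summarized as Z-AUC.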

Experiment [2] can be described thus: qHTS for identification of novel therapeutic agents for treatment of microphthalmiaassociated transcription factor (MiT) renal cell carcinoma (RCC) (AID 1963991).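 For z-score: curves scaled with 100% = DMSO viability and 0% = empty wells.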 The following applies: CellTiter-Glo, 48 h; for z-score: stronger effect = lower value. Put shortly:
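UOK109/UOK124/UOK145 (TFE3 fusions, three partners); 500 cells/well; MIPE v4.0, 1912 cpds, 11 conc.; 48 h, 37 C; CellTiter-Glo, 15 min RT; lum. Norm.: DMSO 100%, empty 0%.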

Experiment [3] can be described thus: S16 Schwann cell PMP22 intronic element beta-lactamase assay (AID 624044). Note: nearly all actives have a fitted effect of over 15% in size. The following applies: S16 rat Schwann cells, PMP22 element beta-lactamase FRET, 24 h. Put shortly:
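Rat S16 Schwann cells with beta-Lac driven by a PMP22 intronic element, compound-treated 24 h at 37 °C. LiveBLAzer FRET B/G read: 460 nm normalized to potassium clavulanate vs DMSO; 535 nm FRET as viability; concentration-effect curves classified.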

Experiment [4] is described as follows: qHTS Validation Assay to Find Inhibitors of Chronic Active B-Cell Receptor Signaling (AID 485345). The note with it: ABC-DLBCL cells, chronic BCR signaling reporter; measured here: CBR control luciferase (viability counter). Put shortly:
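TMD8 ABC-DLBCL cells stably carrying doxycycline-inducible IkappaBalpha–green luciferase fusion plus unfused red luciferase; compounds 46 uM to 3 nM, 4 h at 37C with doxycycline. Corrected green/red luminescence ratio normalized to 10 uM MG-132 and basal cell wells; curves fitted.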

Experiment [5] can be described thus: qHTS assay for small molecule antagonists of peroxisome proliferator-activated receptor delta signaling (AID 588535).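 Note: cells co-treated with a PPAR-delta agonist as stimulator during compound exposure.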 The following applies: HEK293T PPARd-UAS-bla, beta-lactamase FRET ratio, 18 h; 460 nm channel. Put shortly:
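Cells were seeded at 4000 per well in assay medium containing 2% charcoal/dextran FBS and held 5 hrs at 37 C. Compounds were then added for 18 hrs. CCF4 substrate was applied for 2 hrs at room temperature before fluorescence reading.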

Experiment [6] can be described thus: qHTS assay for small molecule antagonists of peroxisome proliferator-activated receptor gamma signaling (AID 588537). The note with it: HEK293 PPARg-UAS-bla, beta-lactamase ratio, antagonist mode; measured here: W460 blue channel. Put shortly:
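Step one: plate 3000 HEK293 UAS-bla cells per well in medium with 1% stripped serum and hold 6-6.5 h at 37 C. Step two: add compound and 50 nM agonist for 16 h. Step three: CCF4 loading, fluorescence read.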

Experiment [7] in a line: qHTS assay for small molecule agonists of retinoid X receptor alpha signaling (AID 588544). The note with it: HEK293T RXRa-UAS-bla, beta-lactamase reporter, 18 h; 530 nm emission.
Experiment [8] in a line: qHTS assay for small molecule antagonists of retinoid X receptor alpha signaling (AID 588546).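 Note: cells stimulated with 9-cis-retinoic acid as agonist; % is set by controls: 0 for no effect and ±100 for the full control effect.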 The note with it: HEK293T RXRa-UAS-bla, beta-lactamase ratio, antagonist mode; measured here: W530 green channel, cytotoxicity proxy. Put shortly:
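Beta-lactamase reporter inhibition, read as CCF4 fluorescence ratio (ex 405, em 460/530 nm) after 2 h at RT. HEK293T UAS-bla cells, 2500/well, were stimulated with 9-cis-RA at 500 or 100 nM final alongside test compound for 18 h at 37 C.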

Experiment [9] is described as follows: qHTS Assay for Inhibitors of PDE-IV (AID 607).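 Note: parental cells stimulated with forskolin 10 µM plus RO 20-1724 100 µM.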 The following applies: HEK293 ACTOne CNG channel cells, membrane potential fluorescence; measured here: parental cell counter-screen. Put shortly:
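The readout is membrane depolarisation from a cAMP-sensing CNG channel, detected with a potential dye at ex 535/em 590. Cells were HEK293-derived (endogenous PDE-IV) at 1000 cells/well, titrated up to 22.9 uM final.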

The nature of experiment [10]: qHTS assay for small molecule antagonists of vitamin D receptor signaling (AID 588541). The following applies: HEK293T VDR-UAS-bla, beta-lactamase ratio, antagonist mode; measured here: W460 blue channel (cell viability).
Where [11] appears, read: measured here: PEO1 parental viability.
Setting [12] is: TFE3-RCC UOK109 viability, measured here: UOK109 Z-AUC.
Setting [13] is: TFE3-RCC viability, measured here: UOK124 Z-AUC.
Where [14] appears, read: TFE3-RCC viability, measured here: UOK124 cell viability.
Where [15] appears, read: TFE3-RCC viability, measured here: UOK145 Z-AUC.
Where [16] appears, read: TFE3-RCC viability, measured here: UOK145 cell viability.
[17] abbreviates: measured here: 460 nm blue channel.
Tags give direction and shape of the fitted curve.

`Oc1ccc(C2=Cc3ccc(O)cc3OC2)cc1`: the AC50 in [1] (setting [11]) is 12.3 µM [falling, partial curve]; in experiment [1] (measured here: PEO4 viability) it was 11 µM [falling, partial curve]; in experiment [2] (setting [14]) it was 9.35 µM [falling, partial curve]; in experiment [2] (setting [16]) it was 16.6 µM [falling, partial curve]. For the same compound, the values for the z-score in experiment [2] (setting [12]), in experiment [2] (setting [13]) and in [2] (setting [15]) were 0.417, 0.205 and 0.572, respectively.
For the compound `Cc1cccc(Nc2nc(N[C@@H]3CCCC[C@H]3N)ncc2C(N)=O)c1`, the AC50 in experiment [1] (setting [11]) was 19.5 µM [falling, partial curve, poor fit]; in [1] (measured here: PEO4 viability) it was 15.5 µM [falling, single point]; in experiment [2] (setting [14]) it was 23.5 µM [falling, partial curve]; in experiment [2] (setting [16]), 10.5 µM [falling, partial curve]. The z-score in experiment [2] (setting [12]) was -1.4; in [2] (setting [13]), -0.426; in experiment [2] (setting [15]) it was -0.472.
For the compound `CCCOc1ccc2nc(NC(=O)OC)[nH]c2c1`, the AC50 in experiment [3] (setting [17]) is 0.794 µM [falling, full curve, poor fit]; in [1] (setting [11]), 0.174 µM [falling, full curve]; in experiment [1] (measured here: PEO4 viability), 0.138 µM [falling, full curve]; in [2] (setting [14]), 0.0264 µM [falling, full curve]; in experiment [2] (setting [16]) it was 0.00469 µM [falling, full curve, poor fit].
`Cc1cc(=O)oc2cc(O)ccc12`: the AC50 was 6 µM [falling, partial curve, poor fit] in experiment [3] (setting [17]); 0.275 µM [rising, full curve, poor fit] in experiment [1] (setting [11]); 3.47 µM [rising, partial curve, poor fit] in experiment [1] (measured here: PEO4 viability). Besides, the z-score in experiment [2] (setting [12]) was found to be 0.101; in experiment [2] (setting [13]), 0.44; in experiment [2] (setting [15]), 1.07.
As to `CC#C[C@]1(O)CC[C@H]2[C@@H]3CCC4=CC(=O)CCC4=C3[C@@H](c3ccc(N(C)C)cc3)C[C@@]21C`, the AC50 in experiment [4] was 23.1 µM [falling, single point]; in experiment [6], 17.8 µM [falling, partial curve, poor fit]; in experiment [1] (setting [11]) it was 24.5 µM [falling, single point]; in experiment [1] (measured here: PEO4 viability), 17.4 µM [falling, single point]; in [2] (setting [14]) it was 7.43 µM [falling, full curve]; in experiment [2] (setting [16]), 0.833 µM [falling, full curve]. The max response was -96.8% in experiment [5], 46.7% in experiment [7] and 15.8% in experiment [8]. Also, the z-score in experiment [2] (setting [12]) was -0.703; in [2] (setting [13]), -0.0996; in [2] (setting [15]), -0.514.
On to `COc1ccc(Cc2nccc3cc(OC)c(OC)cc23)cc1OC`, for which the AC50 was 12.6 µM [rising, partial curve] in experiment [9]; 5.35 µM [falling, full curve, poor fit] in experiment [3] (setting [17]); 0.347 µM [falling, full curve] in experiment [1] (setting [11]); 15.5 µM [falling, partial curve] in [1] (measured here: PEO4 viability); 26.4 µM [falling, partial curve, poor fit] in experiment [2] (setting [16]). Further, the z-score in experiment [2] (setting [12]) was found to be 0.862; in experiment [2] (setting [13]), 0.55; in [2] (setting [15]), 0.543.
As for `CC(C)(C)C(=O)OCOP(=O)(COCCn1cnc2c(N)ncnc21)OCOC(=O)C(C)(C)C`, the AC50 in experiment [3] (setting [17]) was 4.46 µM [falling, partial curve, poor fit]; in experiment [1] (setting [11]), 12.3 µM [falling, partial curve]; in [1] (measured here: PEO4 viability), 8.71 µM [falling, partial curve]; in experiment [2] (setting [16]) it was 3.72 µM [falling, full curve]. Also, the z-score in experiment [2] (setting [12]) is -0.571; in [2] (setting [13]), 1.64; in experiment [2] (setting [15]), -0.676.
With `Cc1[nH]nc2ccc(-c3cncc(OC[C@@H](N)Cc4ccccc4)c3)cc12`, the AC50 in experiment [1] (setting [11]) was 0.776 µM [falling, full curve]; in experiment [1] (measured here: PEO4 viability) it was 0.871 µM [falling, full curve]; in experiment [2] (setting [14]), 3.32 µM [falling, full curve]; in experiment [2] (setting [16]) it was 2.35 µM [falling, full curve]. The z-score in [2] (setting [12]) was -0.149; in experiment [2] (setting [13]) it was 0.45; in experiment [2] (setting [15]) it was -0.342.
`CCc1nc(N)nc(N)c1-c1ccc(Cl)cc1`: the max response in experiment [5] was 83%; in experiment [8], 0.416%. In addition, the concentration at half-maximal activity (AC50) in experiment [6] is 0.0316 µM [falling, full curve, poor fit]; in experiment [10], 50.1 µM [rising, single point]; in experiment [3] (setting [17]) it was 7.94 µM [falling, full curve]; in experiment [1] (setting [11]), 15.5 µM [falling, single point]; in experiment [1] (measured here: PEO4 viability), 3.89 µM [falling, full curve]; in [2] (setting [14]) it was 1.18 µM [falling, full curve]. For the same compound, the AC50 in [2] (setting [16]) is 4.18 µM [falling, full curve]. The z-score in experiment [2] (setting [12]) is -0.143; in [2] (setting [13]), -1.59; in experiment [2] (setting [15]) it was -0.943.
On to `COc1cccc2c(NCc3ccccc3)nc(-n3c(N)nc4ccccc43)nc12`, for which the AC50 was 3.89 µM [falling, single point] in experiment [1] (setting [11]); 2.75 µM [falling, full curve] in experiment [1] (measured here: PEO4 viability); 5.26 µM [falling, full curve] in experiment [2] (setting [14]); 10.5 µM [falling, full curve] in experiment [2] (setting [16]). In addition, the z-score in experiment [2] (setting [12]) is -0.101; in experiment [2] (setting [13]), -1.5; in experiment [2] (setting [15]), -0.268.
As for `CC[C@]1(O)C[C@H]2CN(CCc3c([nH]c4ccccc34)[C@@](C(=O)OC)(c3cc4c(cc3OC)N(C=O)[C@H]3[C@@](O)(C(=O)OC)[C@H](OC(C)=O)[C@]5(CC)C=CCN6CC[C@]43[C@@H]65)C2)C1`, the AC50 in experiment [3] (setting [17]) is 0.501 µM [falling, full curve]; in experiment [3] (measured here: 530 nm viability channel), 0.282 µM [rising, full curve]; in experiment [1] (setting [11]), 0.0616 µM [falling, full curve, poor fit]; in [1] (measured here: PEO4 viability), 0.0977 µM [falling, full curve, poor fit]; in [2] (setting [14]), 0.0118 µM [falling, full curve]; in experiment [2] (setting [16]), 0.0526 µM [falling, full curve].
